Test results from PubChem BioAssay AID485344 (National Center for Advancing Translational Sciences (NCATS), 2010).
The whole screen tested about 340,000 compounds, of which about 6,900 (2%) were called active. Cut-off read from the data, not from the text of the source: active = inhibition above about 30%; inactive = below that, where a call was filed. Only a part is listed here, and it is no random draw. The source gives no active or inactive call for entries shown without one.

The compounds below were run against D(2) dopamine receptor (Homo sapiens) (UniProt P14416) (assay: HTS Assay for Allosteric Antagonists of the Human D2 Dopamine Receptor: Primary Screen for Antagonists). Settings: HEK293 TREx D2 cells, calcium flux, dopamine EC80; at 10 µM; stronger effect = higher value.
UniProt P14416, sequence (P14416 whole entry, looked up): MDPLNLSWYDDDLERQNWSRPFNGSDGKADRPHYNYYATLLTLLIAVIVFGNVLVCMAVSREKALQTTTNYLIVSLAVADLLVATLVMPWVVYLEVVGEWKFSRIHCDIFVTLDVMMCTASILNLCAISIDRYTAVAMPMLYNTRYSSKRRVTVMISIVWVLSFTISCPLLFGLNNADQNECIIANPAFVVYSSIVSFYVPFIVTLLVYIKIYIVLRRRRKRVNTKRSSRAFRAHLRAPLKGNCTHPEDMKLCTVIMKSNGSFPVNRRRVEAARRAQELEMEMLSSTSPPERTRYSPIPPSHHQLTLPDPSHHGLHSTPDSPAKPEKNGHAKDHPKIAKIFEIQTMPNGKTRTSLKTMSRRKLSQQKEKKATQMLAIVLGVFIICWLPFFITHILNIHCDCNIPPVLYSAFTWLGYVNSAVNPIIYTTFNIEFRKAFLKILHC
Method in brief: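 Read-out: kinetic calcium fluorescence (1 cycle/s) in inducible HEK293 T-REx D2 cells after an EC80 dopamine addition that followed 180 s compound preincubation. Loss of the dopamine response indicates antagonism.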
Note: 0% is about no effect.

Compound | inhibition
COc1ccc(Cl)cc1NC(=O)c1ccc2nc(Cc3ccccc3)oc2c1 | -4.46%
CCCC(=O)Nc1cc(C)c(O)c(-c2nc3ncccc3o2)c1 | -23.8%
Cc1nc2c(-c3ccccc3)c(C)nn2c(C)c1CCC(=O)NC(C)c1ccccc1 (stereo unspecified) | -10.6%
COc1cccc(CNC(=O)C2CCCN(S(=O)(=O)c3ccc4c(ccn4C)c3)C2)c1 (stereo unspecified) | 17.7%
CCC(C(=O)Nc1ccc(C(=O)OC)cc1)n1c(=O)c(-c2ccccc2NC(C)=O)nc2ccccc21 (stereo unspecified) | 10.7%
CCOC(=O)c1cccc(NC(=O)c2oc3c(c2C)-c2[nH]ncc2CC3)c1 | 8.57%
CCCN(C(=O)c1cc2c(s1)-c1ccccc1OC2)c1ccccc1F | -6.48%
COc1ccc(NC(=O)CC2C(=O)N(c3ccc(F)cc3)C(=O)N2Cc2cccnc2)cc1 (stereo unspecified) | -5.73%
COc1cc(CN(C(=O)Nc2ccccc2)c2ccccn2)cc(OC)c1OC | -0.517%
CCc1ccccc1NS(=O)(=O)c1ccc2[nH]cc(C(=O)N3CCCCC3)c(=O)c2c1 | -16.3%
CCOc1cccc2cc(-c3nc(-c4ccccc4C)no3)c(=O)oc12 | 1.63%
COc1ccc(COc2ccccc2C(=O)NCc2ccccc2)cc1F | active: 41.5%
O=C(Nc1ccc(Cl)cc1)C1CCCN(S(=O)(=O)c2ccc3[nH]c(=O)ccc3c2)C1 (stereo unspecified) | -9.14%
Cc1cc(F)ccc1NC(=O)CCS(=O)(=O)c1ccc2c(c1)NC(=O)CO2 | 24.3%
CCOC(=O)c1ccccc1NC(=O)CSc1cn(CC(=O)N2CCCCC2)c2ccccc12 | 6.9%
COc1ccc(NCc2cc3cc4c(cc3n(CC(=O)Nc3ccc(F)cc3F)c2=O)OCO4)cc1 | -4.52%
CCc1ccccc1NS(=O)(=O)c1ccc(OC)c2ncccc12 | -20.6%
COc1ccc2c(C)c(CCC(=O)NCCc3ccccc3OC)c(=O)oc2c1 | 12.5%
CCOC(=O)c1cnc2c(Cl)cccc2c1NCCN1CCOCC1 | -2.07%
COC(=O)CCSc1nc2sc3c(c2c(=O)n1Cc1ccccc1)CCC(C(C)(C)C)C3 (stereo unspecified) | 8.87%
CC1=C(C(=O)OC2CCCCCC2)C(c2c(F)cccc2Cl)CC(=O)N1 (stereo unspecified) | 8.47%
CCN(CCCNC(=O)c1c(C)oc2ncn(CC(C)C)c(=O)c12)Cc1ccccc1 | 13.7%
Cc1ccc(Cl)cc1NC(=O)c1oc2c(c1C)-c1[nH]ncc1CC2 | 0.394%
COc1ccc(N(Cc2cccs2)C(=O)COc2cccc(Cl)c2)cc1 | 12.3%

Compound | inhibition
CCOC(=O)c1c(-c2ccccc2)oc2ccc(OCC(=O)O)cc12 | active: 32.8%
C=CCNc1nc(N2CCCCC2)c(C#N)c2c1CN(Cc1ccccc1)CC2 | active: 72.4%
Cn1c(=O)n(-c2ccc(F)c(Cl)c2)c(=O)c2sc3ccccc3c21 | -5.92%
CC(C)C[C@@H](CO)N1CCN(CCCc2ccccc2)CCC1=O | active: 34.7%
CCOC(=O)c1c(Nc2ccc(C)cc2)nnc(-c2ccccc2)c1-c1ccccc1 | 3.46%
COc1ccc(N2CCN(S(=O)(=O)c3ccc4c(c3)CC(C)N4C(C)=O)CC2)cc1 (stereo unspecified) | 3.44%
COc1ccccc1N1CCN(CCN(C(=O)c2ccc(F)cc2)c2ccccn2)CC1 | active: 60.6%
COc1ccc(NC(=O)C2Cc3ccccc3N2C(=O)c2ccccc2)c(OC)c1 (stereo unspecified) | 3.76%
CCOc1ccccc1NC(=O)c1cc2c(Cl)nc3ccccc3c2s1 | 1.06%
Cc1ccc(-n2ncc3c(NCCCN4CCOCC4)ncnc32)cc1 | -4.99%
CCOc1cc(C2C(C(=O)OC)=C(C)NC3=C2C(=O)c2ccccc23)cc(Cl)c1O (stereo unspecified) | -1.52%
O=C(CCC1N=C2c3ccccc3N=C(SCc3ccccc3F)N2C1=O)NC1CCCCC1 (stereo unspecified) | 12.8%
COc1cccc(-n2c(=O)c3c(C)c(C(=O)N(C)C)sc3n(Cc3ccc(F)cc3Cl)c2=O)c1 | -14.2%
CCn1c2ccccc2c2nnc(N3CCN(c4cc(C)ccc4C)CC3)nc21 | 8.41%
Fc1ccc(-c2nc(Nc3cccc(Cl)c3)nc3c2COc2ccccc2-3)cc1 | 12.2%
COc1ccc(NC(=O)CN(Cc2ccccc2)S(=O)(=O)c2ccc(C)cc2)cc1Cl | 0.771%
COC(=O)c1ccc(CNC(=O)C(C)N=C2NS(=O)(=O)c3ccccc32)cc1 (stereo unspecified) | active: 44.3%
CCCCNc1nc(Oc2ccc(=O)[nH]n2)nc(N(C)C)n1 | 17.6%
C=C(C)Cn1c(=O)c2c(nc3n2CCN3c2ccc(CC)cc2)n(C)c1=O | -7.17%
CSc1ncc(C(=O)Nc2ccccc2C(=O)c2ccccc2)c(C(F)(F)F)n1 | 2.33%
CCc1nn(CC(=O)NCCCN(CC)CC)c(=O)c2cc3sc(C)cc3n12 | -0.399%
Fc1ccc(-n2cc(-c3ccccc3)c3c(NC4CCCCC4)ncnc32)cc1 | 8.02%
CCOC(=O)c1cccc(NC(=O)c2cc3c(=O)n(Cc4ccccc4)ccc3nc2C)c1 | 5.54%
CCOC(=O)C1CCCN(S(=O)(=O)c2ccc3c(c2)CCCN3C(C)=O)C1 (stereo unspecified) | 7.07%

Compound | inhibition
COc1ccc(CCNC(=O)c2cc3c(-c4ccccc4F)nn(C)c3s2)c(OC)c1 | -13.9%
O=C(Nc1ccc(Br)cc1F)c1cc(S(=O)(=O)NCc2ccc(F)cc2)ccc1F | -23.8%
NC(=O)c1nn(CC(=O)Nc2cccc(S(=O)(=O)N3CCCC3)c2)c(=O)c2ccccc12 | active: 44.4%
COc1ccc(NC(=O)c2cc3c(s2)-c2c(C)cccc2OC3)c(OC)c1 | -0.16%
CCCc1cc(=O)[nH]c(Nc2cccc(Cl)c2Cl)n1 | 6.12%
CCOc1ccc(-n2c(SCc3ccc(C(=O)OC)o3)nc3c([nH]c4ccccc43)c2=O)cc1 | 4.62%
CCOc1ccc(-c2cc(OC(=O)c3ccc(F)cc3)c3c(C)oc(C)c3c(=O)c2)cc1 | 15.9%
CCN1C(=O)c2ccccc2Sc2ccc(NC(C)=O)cc21 | -2.74%
COc1ccccc1-c1noc(-c2ccc(N3CCC(C)CC3)c([N+](=O)[O-])c2)n1 | 3.68%
COc1cc(C(=O)Nc2cc3c(cc2C)n(C)c(=O)c(=O)n3C)cc(OC)c1OC | -1.79%
CCC(=O)N1CCc2cc(S(=O)(=O)NC(Cc3ccccc3)C(=O)Nc3ccc(C)cc3)ccc21 (stereo unspecified) | 1.09%
Cc1ccc(NC(=O)c2sc3nc(-c4cc5ccccc5oc4=O)[nH]c(=O)c3c2C)c(C)c1 | 8.99%
O=C(CN1CCCC1)Nc1cc(C(F)(F)F)ccc1Cl | active: 81.9%
CC(C)(C)c1nn(-c2ccccc2)c2nc(Cl)c(C=O)cc12 | active: 32.1%
CCOc1ccc(C(=O)Nc2cccc(OCc3cc(=O)n4ccccc4n3)c2)cc1 | -7.84%
O=S(=O)(Nc1cccc(-c2ccc(N3CCCCCC3)nn2)c1)c1ccc(F)cc1 | -7.2%
CCOC(=O)c1[nH]c(C)c(CCC(=O)Nc2ccc(C(C)=O)cc2)c1C | -23.6%
Cc1ccccc1NS(=O)(=O)c1nnc(NC(=O)c2ccc(Cl)cc2)s1 | -7.96%
CCOc1cccc(CNCCNC(=O)c2nonc2N)c1 | 20.7%
O=C1C(c2cccc(Br)c2)N(CCc2ccccc2)C(=O)CN1C1CCCCC1 (stereo unspecified) | 5.86%
Cc1cccc(CNS(=O)(=O)c2csc(C(N)=O)c2)c1 | 4.4%
COc1ccc(C(=O)Oc2c(Sc3ccc(Cl)cc3)c(C)nn2C(C)(C)C)cc1OC | 1.46%
COc1ccc(NC(=O)CCCn2c(=O)c3cccn3c3ccccc32)c(OC)c1 | 28.1%
O=C(NCCc1csc(-c2ccc(C(F)(F)F)cc2)n1)C(=O)Nc1cc(F)ccc1F | -15.3%

Compound | inhibition
COc1ccc(Cn2c(=O)[nH]c3cc(C(=O)NC4CCN(Cc5ccccc5)CC4)ccc32)cc1 | active: 75.5%
O=C(Cn1c(=O)c2ccccc2n(CC(=O)Nc2ccc(Cl)cc2)c1=O)NCCc1ccccc1 | -14%
CCOC(=O)c1c(C)[nH]c(CCC(=O)NCCCN2CCN(c3cc(Cl)ccc3C)CC2)c1C | 21.8%
CCCCN(C)CCNC(=O)C1CCCN(S(=O)(=O)c2ccc3c(c2)oc(=O)n3C)C1 (stereo unspecified) | -15.7%
Cc1cc(-c2ccc(C)c(S(=O)(=O)Nc3ccccc3C(F)(F)F)c2)on1 | 3.21%
COc1ccc(C(=O)N(Cc2ccc(N(C)C)cc2)Cc2ccco2)cc1Cl | 2.54%
Cc1ccc2c(CC(=O)NCc3ccccc3)coc2c1C | 0.367%
Cc1ccc(C)n1-c1c(C(=O)NCC(C)c2ccccc2)sc2ncccc12 (stereo unspecified) | -4.67%
O=c1c2sc3ccccc3c2n(Cc2ccccc2Cl)c(=O)n1Cc1ccccc1 | -9.18%
COc1ccc(CNC(=O)Cn2c(=O)oc3cc(S(=O)(=O)N4CCC(C)CC4)ccc32)cc1 | -10.4%
Cc1ccc(Cl)cc1-n1c(=O)c2sc3ccccc3c2n(CC(=O)NC2CCCCC2)c1=O | 15.1%
Cc1cccc(C)c1NC(=O)c1nc(S(C)(=O)=O)ncc1N(Cc1ccc(F)cc1)Cc1ccco1 | 13%
COc1cccc(CNC(=O)CN2C(=O)CSc3c2c(C)nn3-c2ccccc2)c1OC | 15.5%
CCOC(=O)c1cnc2c(C)cc(C)cc2c1NCCc1ccc(OC)c(OC)c1 | -5.95%
Cc1cc(C)c(C#N)c(SCc2ccccc2C)n1 | active: 34%
CCc1ccc(NC(=O)c2ccc(F)c(S(=O)(=O)NC3CCCCCC3)c2)cc1 | -7.68%
CC(=O)c1c(C)[nH]c(C(=O)OCCCCN2C(=O)c3ccccc3C2=O)c1C | active: 47.7%
Cc1c(Cl)cccc1NC(=O)CN1C(=O)COc2ccc(S(=O)(=O)N3CCCCCC3)cc21 | -8.33%
CCOc1ccccc1NC(=O)c1sc2nc(C)cc(C)c2c1N | -4.84%
Cc1coc2c(C)c3oc(=O)c(CC(=O)NCc4ccccc4)c(C)c3cc12 | 5.84%
COc1ccc(Br)cc1/C=C/C(=O)Nc1ccc(C)cc1 | active: 73.6%
CN1CCN(C(=O)c2ccc3c(c2)N(Cc2cccc(Cl)c2)C(=O)c2ccccc2S3(=O)=O)CC1 | 4.61%
O=C(Nc1ccc2nc(SCCOc3ccccc3)sc2c1)c1cccs1 | -2.48%
COc1ccccc1CNC(=O)C1CCN(S(=O)(=O)c2c(C)noc2/C=C/c2c(C)cc(C)cc2C)CC1 | 18.6%
